Measured values reported in the supplement of paper PMC11417369.
± gives the standard deviation of the averaged measurements. Some of the results follow.

test system: PfAP2-EXP AP2 domain (GST-tagged); assay: gcPBM binding intensity (ln(normalized median fluorescence intensity)); higher = stronger DNA binding
Procedure, shortened: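 After 1 h on an Agilent 4 × 180k array of primer-extended double-stranded 36-bp intergenic genomic probes and negative controls, bound GST-tagged P. falciparum DNA-binding domains were detected with Alexa488 anti-GST antibody and scanned at 488 nm. The domains had been expressed in E. coli, and binding took place in 1× PBS with 1% milk, 0.2 mg/ml BSA, 0.5% salmon testes DNA and 0.03% Triton X-100. Binding intensity is the highest Masliner-normalised natural-log median intensity across replicate spots of either probe orientation.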

Point of comparison: “TCTTTTAAATAACAACATAAATAAATAAATAAATAA [GTGCAC_negctrl_site319]”, “gcPBM binding intensity (ln)” value 8.89 ± 0.071. Against it:
- ATATTTAAGGCGTGTATGCACACGACTATTCCGTAT [CACACA_site1080] — lower, 8.45 ± 0.31
- CTGAAGGAAAAAGAAAGTACTTTTTTTTTTTTGAAG [XGTACX_site5973] — lower, 8.3 ± 0.42
- ATGTTTTATAAAAGGCGTACACATATGCTTAAGTAA [XGTACX_site6232] — within error, 8.94 ± 0.46
- CCTTTATTTTATATGTGTACTAAATTGTATATATAT [XGTACX_site8717] — within error, 8.81 ± 0.19
- AAAAAAAAAATATCATGTACAAATATAATAAAATTT [XGTACX_site3896] — lower, 8.38 ± 0.33
- TATAGCAAAAAATTTACACACATGTTTTTTCTATAC [CACACA_site325] — within error, 8.57 ± 0.38
- GGCATTTTATGAAGTAGTACCATAAATATTAAAGAT [XGTACX_site5287] — within error, 8.86 ± 0.33
- AATTAAAATAGTAATACACACTTCATAGGAAATGAT [CACACA_site5045] — lower, 8.21 ± 0.42
- TATGTATCAAATAAATGTACATATATATATATATAT [XGTACX_site2189] — higher, 10.1 ± 0.49
- AAATTTTTTATGAACACACAAATACACGCACTCAAA [CACACA_site7286] — within error, 8.91 ± 0.36
- TAAAATATATAAAACTGTACATTTTAAAGGCACAAC [XGTACX_site8342] — within error, 9.12 ± 0.38
- AATAATAAAATAAAGGCATGCACAATATGCTATAAA [TGCATGCA_site645] — within error, 9.19 ± 0.3
- TTTTTTTTTTTTTGCACACACCATATTTATAGAAAT [CACACA_site5772] — within error, 8.76 ± 0.23
- TAAAATTAATTTCTGTTGCACTTATTATTAATTAAC — within error, 8.84 ± 0.4
- ATATTATACCCGTGTACACATTATAACCATATATAA [CACACA_site5933] — within error, 8.96 ± 0.23
- TATATGTATAGAAAATGTACATATAAATATATATAT [XGTACX_site3420] — higher, 9.265 ± 0.021
- TTTTTACTATTTATATGACTAAAAATATATTGAATA [CACACA_negctrl_site188] — lower, 8.14 ± 0.39
- TAAATTAATAAACAAGTGCATATATATATATATATA — higher, 10.2 ± 0.38
- GTCATATTAATATGTACACACATATTTATATTTATA [CACACA_site6798] — within error, 8.65 ± 0.22
- CAATTTATTTTTATTACACACTATCCAAGTAATTTC [CACACA_site7402] — lower, 8.51 ± 0.29
- CAAGCACACGGACACACACACACACGCGCACGCACA [CACACA_site6307] — within error, 8.57 ± 0.45
- TTTTATGTAACATCACGTACTTATATTTAAGTATTC [XGTACX_site7459] — within error, 8.79 ± 0.32
- AATATAATATAATGCACACATAAAACAAAAAAAAAA [CACACA_site3012] — within error, 8.82 ± 0.47
- AAATATATCATACAAAGTACTTGGAATTAATATATA [XGTACX_site8907] — lower, 8.36 ± 0.43
- GTTGATACATGAAGCTGTACATAATATTTGTCATTT [XGTACX_site8628] — within error, 8.62 ± 0.39
- TAATTTTTCCAACTTTGTACAGATATATTAATAAAA [XGTACX_site7856] — within error, 8.37 ± 0.49
- AAAAATAGACAAAAGAGTACAAGAAAAAAAGGGTTC [XGTACX_site7843] — within error, 9.01 ± 0.55
- GGAAAATGAAAAACAAAAAAAAAAAAAAAAAAATGA [TGCATGCA_negctrl_site432] — within error, 8.41 ± 0.9
- ATATTCCTACATACAACACACGACGTTCTCATAAGA [CACACA_site231] — within error, 8.71 ± 0.43
- TCTTTTTAGATATATACACACCGTGTCTACCTATAC [CACACA_site7551] — within error, 8.52 ± 0.33
- ACATCTGTTATTTGTGGTACTAAAAAAATATATAGT [XGTACX_site8322] — within error, 8.65 ± 0.23
- TTACAATTAATAAAGTGTACTTAACTATTATATATA [XGTACX_site481] — lower, 8.13 ± 0.18
- TTTTAAAGTTGTGAGCTTCATTTTTATTTATATGTA [CACACA_negctrl_site1505] — within error, 8.39 ± 0.5
- ATATATATATATGTCTGTACATAAAAAATAATAAAT [XGTACX_site3122] — higher, 10 ± 0.36
- TTGATCTATAATAATACACACTTACATAATTAATTA [CACACA_site6273] — lower, 8.3 ± 0.35
- ATTTTTATTTTTATTTGTACTTATATATTCTTAAGC [XGTACX_site4122] — within error, 8.71 ± 0.43
- ATCATATTTATGTTGGTGCATTATGCATGGATTTTA [GTGCAC_site9795] — within error, 8.845 ± 0.035
- TTTTTAAATATAAACAAAAAAAAAAAATATATCAAT [XGTACX_negctrl_site328] — within error, 8.54 ± 0.5
- AATACCCAAGGACACACACACACATATATATATATA [CACACA_site8345] — higher, 10.2 ± 0.26
- ATAATATAAATACAAACACACAATTGTGTCCACATT [CACACA_site6920] — within error, 8.86 ± 0.25
- TTTTTATTTAATAGTTGTACATTGAAAAATATGTAT [XGTACX_site3025] — within error, 8.46 ± 0.38
- TGATTAAATAAATATATATATTTATATATTATACAG [CACACA_negctrl_site1596] — lower, 8.11 ± 0.33
- CAAATAAATATTAAAAGTACACACAGATACACTAAT [XGTACX_site3749] — within error, 8.81 ± 0.3
- GCTCTATCAAAAAAATGTACACATATTATCATTCAT [XGTACX_site143] — within error, 8.55 ± 0.3
- TATATATATATATATGTGCACTGGACATATTTTTAT [GTGCAC_site9721] — higher, 10.1 ± 0.48
- TTTACAAAAAATTATACACACACGTACAGATAAATA [CACACA_site4678] — within error, 8.81 ± 0.44
- ACCCATAAAAATTATGCACACTTAATAAAGCGAAAT [CACACA_site5722] — within error, 8.62 ± 0.36
- ATAATTTATTTTAAAAGTACTCAATTTGCTTTTCTC [XGTACX_site5749] — lower, 8.51 ± 0.3
- TCCTCATTTTATCATACACACTTGTTTATATGGGTG [CACACA_site4650] — within error, 8.74 ± 0.42
- AAATAATTAAACATATGTACATATTATATATATATA [XGTACX_site6774] — higher, 9.8 ± 0.085
- TATATTTATTATAATTGTACATAAAATAAACTAAGA [XGTACX_site4318] — lower, 8.41 ± 0.39
- ATATACATTTAAATGTGTACATAATAAAATAAAAAA [XGTACX_site8170] — the same, 8.89 ± 0.19
- CAAAAAAAAAAAAAAACACACATTAAATTAGAAAGA [CACACA_site7271] — within error, 8.4 ± 0.59
- AATATTTATATTTAGTGTACAGAAATAAAAAAAAAA [XGTACX_site6066] — lower, 8.49 ± 0.21
- GCTAATTTATTTTGCAGTACATATATAATAATATAT [XGTACX_site478] — lower, 8.37 ± 0.16
- AAATATATATAAATGAGTACTTATGGTAACATATAT [XGTACX_site6362] — within error, 8.64 ± 0.33
